Experimental data as given in patent US11807625B2, “Capsid inhibitors for the prevention of HIV” (Gilead Sciences, Inc., priority 2019, dated 2023).
Several values for one entry are separate records, joined by “and”; a condition that tells them apart may be missing. Equal values may be shown once. The source gives many values for each of these; only a part stands here.

Test: PK of compound of Formula (Ia) after single subcutaneous dose of solution formulations in Wistar Han rats
Format: in vivo
Conditions: Wistar Han rats, SC 50 mg/kg
Procedure: Formulations containing the compound of Formula (Ia), or a pharmaceutically acceptable salt thereof, were prepared as solutions and optionally administered subcutaneously or intramuscularly to rats, rabbits, and/or dogs.
(§1) A solution of about 400 mg/mL of the compound of Formula (Ia) having 19.14 w/w % water, 40.66 w/w % PEG 300, 35.20 w/w % of a sodium salt of a compound of Formula (Ia), and 5.00% ethanol was prepared. The solution was administered subcutaneously to male Wistar Han rats at a dose level of about 50 mg/kg and dose volume of 0.125 mL/kg and the pharmacokinetic (PK) profile was determined.
as §1, with “500” for “400”, “16.64” for “19.14”, “35.36” for “40.66”, “43.00” for “35.20”, “0.1” for “0.125”
(§2) A solution of about 400 mg/mL of the compound of Formula (Ia) having 17.00 w/w % water, 36.40 w/w % PEG 300, 35.20 w/w % of a sodium salt of a compound of Formula (Ia), 5.00 w/w % ethanol, and 6.40 w/w % poloxamer 188 was prepared. The solution was administered subcutaneously to male beagle dogs at a dose level of about 12 mg/kg and male Wistar Han rats at a dose level of about 50 mg/kg. The pharmacokinetic profiles were determined, and the results for dogs are summarized in Table and Table, while the results for rats are summarized in Table and Table below.
as §2, with “500” for “400”, “14.06” for “17.00”, “30.12” for “36.40”
A solution of about 300 mg/mL of the compound of Formula (Ia) having 23.33 w/w % water, 48.99 w/w % PEG 300, 26.47 w/w % of a sodium salt of a compound of Formula (Ia), and 1.21 w/w % poloxamer 188 was prepared. The solution was administered subcutaneously to male beagle dogs at a dose level of about 6 mg/kg and male Wistar Han rats at a dose level of about 50 mg/kg. The pharmacokinetic profiles were determined, and the results for dogs are summarized in Table and Table, while the results for rats are summarized in Table and Table below.
as §2, with “18.80” for “17.00”, “40.25” for “36.40”, “34.38” for “35.20”, “1.57” for “6.40”
as §2, with “500” for “400”, “16.29” for “17.00”, “34.88” for “36.40”, “41.92” for “35.20”, “1.91” for “6.40”
A solution of about 400 mg/mL of the compound of Formula (Ia) having 20.90 w/w % water, 44.72 w/w % PEG 300, and 34.38 w/w % of a sodium salt of a compound of Formula (Ia) was prepared. […]

Plasma concentration (400 mg/mL solution Y (water, PEG 300), 1.00 h, animals #1-#4): 22.1 nM and 39.4 nM and 24.1 nM | Plasma concentration (400 mg/mL solution Y (water, PEG 300), 3.00 h, animals #1-#4): 39.2 nM and 68.9 nM and 49.5 nM | Plasma concentration (400 mg/mL solution Y (water, PEG 300), 8.00 h, animals #1-#4): 66.8 nM and 80.4 nM and 53.7 nM | Plasma concentration (400 mg/mL solution Y (water, PEG 300), 24.0 h, animals #1-#4): 110 nM and 116 nM and 74.5 nM | Plasma concentration (400 mg/mL solution Y (water, PEG 300), 48.0 h, animals #1-#4): 113 nM and 154 nM and 88.9 nM | Plasma concentration (400 mg/mL solution Y (water, PEG 300), 72.0 h, animals #1-#4): 126 nM and 149 nM and 75.4 nM | Plasma concentration (400 mg/mL solution Z (3.13% poloxamer 188), 168 h, animals #1-#4): 130 nM and 122 nM and 65.0 nM | Plasma concentration (400 mg/mL solution Z (3.13% poloxamer 188), 672 h, animals #1-#4): 155 nM and 136 nM and 235 nM | Plasma concentration (400 mg/mL solution Z (3.13% poloxamer 188), 1008 h, animals #1-#4): 136 nM and 139 nM and 244 nM | Plasma concentration (400 mg/mL solution Z (3.13% poloxamer 188), 1344 h, animals #1-#4): 110 nM and 220 nM | Plasma concentration (400 mg/mL solution Z (3.13% poloxamer 188), 1680 h, animals #1-#4): 115 nM and 116 nM and 169 nM | Plasma concentration (400 mg/mL solution Z (3.13% poloxamer 188), 2016 h, animals #1-#4): 137 nM and 93.8 nM and 165 nM | Plasma concentration (400 mg/mL solution Z (3.13% poloxamer 188), 2352 h, animals #1-#4): 117 nM and 122 nM and 167 nM | Plasma concentration (400 mg/mL solution Z (3.13% poloxamer 188), 2688 h, animals #1-#4): 117 nM and 158 nM and 172 nM | Plasma concentration (400 mg/mL solution Z (3.13% poloxamer 188), 3024 h, animals #1-#4): 115 nM and 151 nM and 154 nM | Plasma concentration (400 mg/mL solution Z (3.13% poloxamer 188), 3360 h, animals #1, #3, #4 (#2 NS)): 158 nM and 133 nM | Plasma concentration (400 mg/mL solution Z (3.13% poloxamer 188), 3696 h, animals #1, #3, #4 (#2 NS)): 163 nM and 150 nM | Plasma concentration (500 mg/mL solution X (5.00% ethanol, 1.91% poloxamer 188), 3.00 h, animals #1-#3): 57.8 nM and 86.0 nM | Plasma concentration (500 mg/mL solution X (5.00% ethanol, 1.91% poloxamer 188), 8.00 h, animals #1-#3): 75.9 nM and 97.7 nM | Plasma concentration (500 mg/mL solution X (5.00% ethanol, 1.91% poloxamer 188), 24.0 h, animals #1-#3): 151 nM and 237 nM | Plasma concentration (500 mg/mL solution X (5.00% ethanol, 1.91% poloxamer 188), 48.0 h, animals #1-#3): 165 nM and 254 nM | Plasma concentration (500 mg/mL solution X (5.00% ethanol, 1.91% poloxamer 188), 72.0 h, animals #1-#3): 153 nM and 237 nM | Plasma concentration (500 mg/mL solution X (5.00% ethanol, 1.91% poloxamer 188), 96.0 h, animals #1-#3): 166 nM and 201 nM | Plasma concentration (500 mg/mL solution X (5.00% ethanol, 1.91% poloxamer 188), 168 h, animals #1-#3): 134 nM and 189 nM | Plasma concentration (500 mg/mL solution X (5.00% ethanol, 1.91% poloxamer 188), 336 h, animals #1-#3): 185 nM and 246 nM | Plasma concentration (500 mg/mL solution X (5.00% ethanol, 1.91% poloxamer 188), 504 h, animals #1-#3): 239 nM and 261 nM | Plasma concentration (500 mg/mL solution X (5.00% ethanol, 1.91% poloxamer 188), 672 h, animals #1-#3): 246 nM and 252 nM | Plasma concentration (500 mg/mL solution X (5.00% ethanol, 1.91% poloxamer 188), 840 h, animals #1-#3): 282 nM and 239 nM | Plasma concentration (500 mg/mL solution X (5.00% ethanol, 1.91% poloxamer 188), 1008 h, animals #1-#3): 312 nM and 183 nM | Plasma concentration (500 mg/mL solution X (5.00% ethanol, 1.91% poloxamer 188), 1344 h, animals #1-#3): 321 nM and 182 nM | Plasma concentration (500 mg/mL solution X (5.00% ethanol, 1.91% poloxamer 188), 1680 h, animals #1-#3): 310 nM and 224 nM | Plasma concentration (500 mg/mL solution X (5.00% ethanol, 1.91% poloxamer 188), 2016 h, animals #1-#3): 248 nM and 169 nM | Plasma concentration (500 mg/mL solution X (5.00% ethanol, 1.91% poloxamer 188), 2352 h, animals #1-#3): 222 nM and 141 nM | Plasma concentration (500 mg/mL solution X (5.00% ethanol, 1.91% poloxamer 188), 2688 h, animals #1-#3): 205 nM and 157 nM | Plasma concentration (500 mg/mL solution X (5.00% ethanol, 1.91% poloxamer 188), 3024 h, animals #1-#3): 187 nM and 168 nM | Plasma concentration (500 mg/mL solution X (5.00% ethanol, 1.91% poloxamer 188), 3360 h, animals #1-#3): 171 nM and 178 nM | Plasma concentration (500 mg/mL solution X (5.00% ethanol, 1.91% poloxamer 188), 3696 h, animals #1-#3): 138 nM and 144 nM | Plasma concentration (500 mg/mL solution X (5.00% ethanol, 1.91% poloxamer 188), 4032 h, animals #1-#3): 132 nM and 175 nM | Plasma concentration (500 mg/mL solution X (5.00% ethanol, 1.91% poloxamer 188), 4704 h, animals #1-#3): 68.0 nM and 119 nM
SMILES: CC(C)(C#Cc1ccc(-c2ccc(Cl)c3c(NS(C)(=O)=O)nn(CC(F)(F)F)c23)c([C@H](Cc2cc(F)cc(F)c2)NC(=O)Cn2nc(C(F)(F)F)c3c2C(F)(F)[C@@H]2C[C@H]32)n1)S(C)(=O)=O [compound of Formula (Ia)]
